The list shows a part of the results.

Growth inhibition call data for 28 molecules are collected here from the antibiotic and cytotoxicity screens of Wong et al. (2023).

This assay has as its system S. aureus RN4220. As to the kind of experiment: growth inhibition call (relative growth <= 0.2). To be noted: 50 µM.
With `C[C@H]1CN([C@@H](C)CO)C(=O)c2cc(C3=CCCCC3)cnc2O[C@@H]1CN(C)C(=O)CN1CCOCC1`, the growth inhibition call is “inactive”. Turning to `C[C@H](CO)N1C[C@H](C)[C@H](CN(C)S(=O)(=O)c2cccc(F)c2)Oc2ncc(C#Cc3ccccc3)cc2C1=O`, the growth inhibition call is “inactive”. As to `C=CC[C@@H](CC(=O)N[C@@H](CO)Cc1ccccc1)C(=O)N[C@H](COC(=O)[C@@H](CC=C)Cc1ccc(F)cc1)Cc1c[nH]c2ccccc12`, the growth inhibition call is “inactive”. For `COc1ccc2c3c(n(c2c1)C)[C@@H](CO)N(C[C@]13CN(C1)C(=O)C1CC1)C(=O)CN1CCOCC1`, the growth inhibition call is “inactive”.

As for `Nc1nnc(-c2ccno2)o1`, the growth inhibition call is “inactive”. In the case of `Cl.Cl.NCCNCCNCCN`, the growth inhibition call was “inactive”.

On to `C[C@@H]1CN([C@H](C)CO)C(=O)c2cc(NS(=O)(=O)c3cccs3)ccc2O[C@@H]1CN(C)Cc1ccc(Cl)c(Cl)c1`, for which the growth inhibition call was “inactive”. As to `CO[C@H]1CN(C)C(=O)c2ccc(NC(=O)CC(F)(F)F)cc2OC[C@H](C)N(C(=O)C2CCOCC2)C[C@H]1C`, the growth inhibition call is “inactive”. The value for `Cc1noc(C)c1S(=O)(=O)N(C)C[C@@H]1Oc2ccc(N(C)C)cc2CC(=O)N([C@@H](C)CO)C[C@H]1C` was “inactive”.

Take `COc1ccc(C(=O)Nc2cccc(CN3C(=O)[C@@]4(O[C@@H](CC(=O)N5Cc6ccccc6C[C@H]5CO)[C@H]([Si](C)(C)c5ccc(OC)cc5)[C@H]4C)c4ccccc43)c2)cc1`: the growth inhibition call was “inactive”. On to `CNC[C@@H]1OCCCC[C@@H](C)Oc2ccc(NC(=O)c3ccncc3)cc2C(=O)N([C@H](C)CO)C[C@H]1C`, for which the growth inhibition call is “inactive”. Regarding `CO[C@@H]1CCN(C(=O)CS(C)(=O)=O)[C@@H]2CCO[C@H]21`, the growth inhibition call is “inactive”.

In the case of `C[C@@H]1CCCCO[C@H](CN(C)C(=O)Nc2ccc(C(F)(F)F)cc2)[C@H](C)CN([C@@H](C)CO)C(=O)c2cc(NS(=O)(=O)c3cccs3)ccc2O1`, the growth inhibition call was “inactive”. As for `CC(C)(C)OC(=O)C[C@H]1CC=CC[C@H](CC(=O)N[C@@H](CO)Cc2ccccc2)C(=O)N2CCC[C@@H]2COC1=O`, the growth inhibition call is “inactive”.

`CC(N)(Cc1ccc(O)c(O)c1)C(=O)O` (stereo not drawn): the growth inhibition call is “inactive”.

As to `COc1ccc(NC(=O)N(C)C[C@@H]2OCCCC[C@@H](C)Oc3ccc(NS(=O)(=O)c4ccc(Cl)cc4)cc3C(=O)N([C@@H](C)CO)C[C@H]2C)cc1`, the growth inhibition call is “inactive”. Consider `COc1ccc(S(=O)(=O)Nc2ccc3c(c2)C(=O)N([C@H](C)CO)C[C@@H](C)[C@@H](CN(C)S(=O)(=O)c2ccc(Cl)cc2)OCCCC[C@@H](C)O3)cc1`, for which the growth inhibition call was “inactive”.

As to `COc1ccccc1C#Cc1cnc2c(c1)C(=O)N([C@H](C)CO)C[C@@H](C)[C@@H](CN(C)C(=O)CC1CC1)O2`, the growth inhibition call was “inactive”. As to `Cc1noc(C)c1NC(=O)Nc1ccc2c(c1)C(=O)N([C@H](C)CO)C[C@@H](C)[C@H](CN(C)C(=O)Nc1c(C)noc1C)OCCCC[C@@H](C)O2`, the growth inhibition call was “inactive”. Take `C[C@@H]1CN([C@@H](C)CO)C(=O)Cc2cc(NC(=O)Nc3ccc4c(c3)OCO4)ccc2O[C@@H]1CN(C)C(=O)Nc1cccc2ccccc12`: the growth inhibition call was “inactive”. The value for `NC(CC(=O)N1CCn2c(nnc2C(F)(F)F)C1)Cc1cc(F)c(F)cc1F.O.O=P(O)(O)O` (stereo not drawn) was “inactive”; that for `COCC(=O)N(C)C[C@@H]1Oc2cc(C#CC(C)(C)O)ccc2S(=O)(=O)N([C@@H](C)CO)C[C@H]1C` was “inactive”; that for `c1ccc(Oc2nnc(-c3ccccc3)c3ccccc23)cc1` was “inactive”.

As to `CCc1cccc(C(C)C)c1NC(=O)Nc1ccccc1`, the growth inhibition call is “inactive”. As to `C[C@@H]1CN([C@H](C)CO)C(=O)c2cc(NC(=O)Nc3ccc(F)cc3)ccc2O[C@@H](C)CCCCO[C@@H]1CN(C)S(=O)(=O)c1cccs1`, the growth inhibition call is “inactive”. For the molecule `C[C@H](CO)N1C[C@H](C)[C@H](CN(C)S(=O)(=O)c2ccc(Cl)cc2)OCc2ccccc2-c2c(n(C)c3ccccc23)C1=O`, the growth inhibition call was “inactive”. Regarding `C[C@@H]1CN([C@H](C)CO)C(=O)CCCn2nncc2CO[C@@H]1CN(C)C(=O)Nc1ccc2c(c1)OCCO2`, the growth inhibition call was “inactive”. In the case of `COc1ccc(C#Cc2cnc3c(c2)C(=O)N([C@@H](C)CO)C[C@H](C)[C@H](CN(C)CC2CCOCC2)O3)cc1`, the growth inhibition call was “inactive”.
